Measured values published in publication PMC4336329 (PLoS ONE, 2015).
Hit rate of the full screen: of about 310,000 compounds, about 14,000 (4.5%) showed an effect of 50% or more. Effects have a minus sign here. Some of the results follow.

Biological target: human ether-à-go-go-related gene (hERG) potassium channel (human, UniProt Q12809)
Experiment: primary screen, population patch clamp on CHO cells stably expressing hERG
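Note: peak tail current of the secondary pulse compared with the same well before compound.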

Chain of human ether-à-go-go-related gene (hERG) potassium channel (Q12809 whole entry, looked up): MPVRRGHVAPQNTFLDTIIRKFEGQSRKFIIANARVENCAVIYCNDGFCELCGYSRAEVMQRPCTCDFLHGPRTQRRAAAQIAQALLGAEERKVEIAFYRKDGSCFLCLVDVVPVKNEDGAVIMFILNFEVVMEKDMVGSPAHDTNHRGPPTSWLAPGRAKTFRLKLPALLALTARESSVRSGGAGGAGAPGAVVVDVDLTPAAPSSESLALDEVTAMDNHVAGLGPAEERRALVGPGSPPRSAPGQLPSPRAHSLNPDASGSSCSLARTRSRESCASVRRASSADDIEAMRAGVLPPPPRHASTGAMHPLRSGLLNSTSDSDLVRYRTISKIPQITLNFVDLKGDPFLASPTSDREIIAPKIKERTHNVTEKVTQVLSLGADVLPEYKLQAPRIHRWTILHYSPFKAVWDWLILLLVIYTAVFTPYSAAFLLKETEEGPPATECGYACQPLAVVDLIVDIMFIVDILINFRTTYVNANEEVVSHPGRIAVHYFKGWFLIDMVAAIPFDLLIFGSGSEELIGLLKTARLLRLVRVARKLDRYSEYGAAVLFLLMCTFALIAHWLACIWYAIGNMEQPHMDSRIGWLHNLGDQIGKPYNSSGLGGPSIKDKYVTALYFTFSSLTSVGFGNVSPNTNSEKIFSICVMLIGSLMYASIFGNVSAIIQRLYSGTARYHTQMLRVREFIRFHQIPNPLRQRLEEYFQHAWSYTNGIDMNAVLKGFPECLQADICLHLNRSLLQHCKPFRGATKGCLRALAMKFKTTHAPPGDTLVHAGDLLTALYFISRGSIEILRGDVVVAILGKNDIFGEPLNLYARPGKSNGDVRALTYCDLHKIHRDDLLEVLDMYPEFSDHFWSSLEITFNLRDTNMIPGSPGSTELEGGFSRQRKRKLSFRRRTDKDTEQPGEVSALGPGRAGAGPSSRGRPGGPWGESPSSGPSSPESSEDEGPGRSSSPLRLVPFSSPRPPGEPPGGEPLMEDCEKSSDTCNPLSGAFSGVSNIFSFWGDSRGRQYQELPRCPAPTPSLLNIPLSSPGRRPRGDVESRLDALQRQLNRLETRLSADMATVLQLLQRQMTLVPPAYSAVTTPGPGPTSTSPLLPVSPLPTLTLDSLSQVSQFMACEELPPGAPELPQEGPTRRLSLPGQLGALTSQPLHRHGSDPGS

SMILES | hERG current change (%, negative = inhibition) at 10uM [%]
O=c1cc(O)c2c(=O)n(-c3ccccc3)c3c(c2o1)CCCCCC3 | -2.07
CC(C)(C)NC(=O)CN(C(=O)C1CSC(=O)C1)c1ccccc1F (stereo not drawn) | -0.923
CC(=O)N1CCN=C1SCc1c(F)cccc1Cl | -8.69
COc1ccc(S(=O)(=O)N2CCN(c3nn(C)c(=O)n(C)c3=O)CC2)cc1 | -3.17
CCN1C(=O)[C@H]2[C@@H](c3ccc(SC4CCCCC4)cc3)N[C@@](CC(C)C)(C(=O)OC)[C@H]2C1=O.O=C(O)C(F)(F)F | -7.5
CCOC(=O)C(C)n1cnc2scc(-c3ccc(C)cc3)c2c1=O (stereo not drawn) | -12.8
Cc1cc(Oc2nc3ccccn3c(=O)c2/C=C(\C#N)C(=O)NC2CCS(=O)(=O)C2)ccc1Cl (stereo not drawn) | -3.75
CC(=O)Nc1c(OC(C)=O)ccc2c(C)cc(=O)oc12 | 0.768
CCOC(=O)C1=C(N)OC2=C(C(=O)CCC2)C1c1cccnc1 (stereo not drawn) | 6.28
CC1(C)CC(=O)C2=C(C1)N(C1CCCCC1)C(=O)C2(O)C(F)(F)F (stereo not drawn) | 9.52
Cc1ccc(CNC(=O)C2CCC(=O)N2Cc2ccc(F)cc2)cc1 (stereo not drawn) | -5.69
O=C(Cc1c(F)cccc1Cl)N1CCN(C(=O)c2ccco2)CC1 | -4.81
O=C(O)C12C3CCCC1C32c1ccccc1 (stereo not drawn) | 21.7
O=C(COc1ccc2c3c(c(=O)oc2c1)CCCC3)N1CCN(c2ccccc2)CC1 | 5.89
CC(=O)N1CCN(C(=O)c2ccc(C(=O)c3ccccc3)cc2)CC1 | 6.39
O=C(OCc1cccc([N+](=O)[O-])c1)c1cc(=O)[nH]c2ccccc12 | 20.8
Cc1ccccc1NC(=O)c1cc(S(=O)(=O)N2CCCCC2)cs1 | -6.25
CC1CCCN(C(=O)/C(=C/c2ccco2)NC(=O)c2ccccc2)C1 (stereo not drawn) | -22.8
Cc1cc2cc3c(cc2nc1SCC(=O)Nc1nc(C)c(C)s1)OCO3 | 10.5
Cc1ccc(C(=O)Nc2ccc(O)cc2C(=O)O)cc1C | 17.4
COc1ccc(C(=O)CSc2nnc(CNC(=O)c3ccco3)n2C)cc1 | -3.62

SMILES | hERG current change (%, negative = inhibition) at 10uM [%]
CCCC(=O)Nc1ccc(-c2nc3ncccc3o2)cc1 | 16.9
O=C(O)c1ccc(-n2cccc2)cc1O | -5.78
COc1cc(/C=N/Nc2nc(=O)[nH]nc2C)cc(OC)c1O | 11.7
Nc1nnnn1CC(=O)N/N=C/c1ccccn1 | 22.7
Cc1ccc(NC(=O)CN(C)C(=S)NC2CC2)cc1 | 16.4
C[C@H](NC(=O)c1nc[nH]c1C(=O)NCc1ccc(CNC(=O)OC(C)(C)C)cc1)c1ccccc1 | 11.3
COc1ccc(-n2c(O)c(C(C)=NCCCn3ccnc3)c(=O)[nH]c2=O)cc1 | -12.3
COc1ccc(C(=O)NCc2nnc(SCC(=O)Nc3nc4ccccc4s3)o2)cc1OC | 17.8
O=C(N/N=C/c1ccc(OC(F)F)cc1OC(F)F)c1cccc(S(=O)(=O)N2CCOCC2)c1 | -33.1
O=C(Nc1cccn2ncnc12)c1cccc(C(F)(F)F)c1 | 5.35
CCCNC(=O)CC(NS(=O)(=O)c1ccc(NC(C)=O)cc1)C(C)C (stereo not drawn) | 25.9
CCOC(=O)C1CCN(C(=S)NC2CC3C=CC2C3)CC1 (stereo not drawn) | -54.3
CCn1c(=O)c(=O)[nH]c2cc(C(=O)Nc3ccc(S(=O)(=O)N4CCCC4)cc3)ccc21 | 2.83
COc1ccc(N(CC(=O)N/N=C/c2ccco2)S(=O)(=O)c2ccccc2)cc1Cl | -23.5
O=C(Nc1cc(C(F)(F)F)ccc1N1CCCC1)C1=COCCO1 | -8.16
CN(C)c1ccc(/C=N/n2c(COc3ccccc3)n[nH]c2=S)cc1 | -11.6
COc1ccc(OC)c(NC(=O)CC(Cc2ccccc2OC)C(=O)O)c1 (stereo not drawn) | 6.62
CCC(C)N(C(=O)Cn1nnc2ccccc21)C(C(=O)NCc1ccco1)c1cccc(OC)c1 (stereo not drawn) | -6.44
CCOc1cc(C(=O)Nc2nnc(CC)s2)ccc1OCC(=O)N1CCOCC1 | 9.38
CC1CN(S(=O)(=O)c2ccc(C(=O)N(CCCN(C)C)c3nc4c(Cl)cccc4s3)cc2)CC(C)O1.Cl (stereo not drawn) | -36.7
COc1ccc(S(=O)(=O)N2CCCCC2)cc1NC(=O)Cn1cnc2ccccc2c1=O | 4.22
